About 230 (0.21%) of roughly 110,000 compounds showed an effect of 50% or more. This is one part of the list.
Molecular target: DPAP1 (Plasmodium falciparum, UniProt Q8IIJ9)
Assay: primary screen, percent inhibition; read by cleavage of a fluorogenic dipeptide substrate; higher = more effect of the substance
Parameters: species or system P. falciparum D10 trophozoite lysates; single well
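Further: 30 min substrate incubation versus DMSO and 10 µM JCP410 controls.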

Sequence of DPAP1 (Q8IIJ9 whole entry, looked up): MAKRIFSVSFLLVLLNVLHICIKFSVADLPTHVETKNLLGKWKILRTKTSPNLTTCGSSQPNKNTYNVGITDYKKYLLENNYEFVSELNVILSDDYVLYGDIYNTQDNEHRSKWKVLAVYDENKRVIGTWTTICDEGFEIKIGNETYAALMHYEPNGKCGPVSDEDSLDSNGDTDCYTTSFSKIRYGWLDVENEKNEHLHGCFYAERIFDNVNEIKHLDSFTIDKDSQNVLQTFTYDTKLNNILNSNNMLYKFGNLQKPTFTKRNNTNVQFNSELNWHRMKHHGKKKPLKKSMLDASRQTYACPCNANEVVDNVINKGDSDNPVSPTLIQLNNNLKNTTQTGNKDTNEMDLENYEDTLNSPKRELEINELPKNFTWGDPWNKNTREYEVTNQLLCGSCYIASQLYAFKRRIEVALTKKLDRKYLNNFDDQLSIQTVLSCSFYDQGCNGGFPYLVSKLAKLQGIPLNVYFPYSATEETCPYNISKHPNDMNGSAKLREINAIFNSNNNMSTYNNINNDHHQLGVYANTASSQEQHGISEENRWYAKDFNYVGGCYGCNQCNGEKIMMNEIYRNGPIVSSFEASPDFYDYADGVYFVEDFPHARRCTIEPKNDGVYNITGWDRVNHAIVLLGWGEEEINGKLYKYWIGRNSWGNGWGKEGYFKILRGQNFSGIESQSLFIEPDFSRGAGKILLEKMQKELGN

Compound | % Inhibition @ 10 uM [%]
CN(Cc1ccccc1)S(=O)(=O)c1ccc(NC(=O)CCC(=O)O)cc1 | 2.48
COc1cc(OC)c(C(=O)O/N=C(\N)c2cccnc2)cc1OC | -7.46
Cc1ccc(-c2csc(NC(=O)C3CCCCC3C(=O)O)n2)cc1 (stereo not drawn) | -0.425
CCOC(=O)C1=CN(C)C=C(C(=O)OCC)C1c1cc2c(cc1Br)OCO2 | -5.05
Cc1nn(C(=O)CNC(=O)c2ccccc2)c(C)c1C | 3.54
COc1ccc(C(=O)C2=C(O)C(=O)N(CCN3CCNCC3)C2c2ccccc2)cc1 (stereo not drawn) | 3.8
Cc1cccc(C(=O)Nc2ccccc2-n2cccc2)c1 | 2.02
COCCOC(=O)c1[nH]c2c(c1C)C(=O)CC(c1cc(OC)c(OC)c(OC)c1)C2 (stereo not drawn) | -2.63
COc1ccc(OC)c(NC(=O)COc2ccc(C)cc2)c1 | -1.61
CCC(Oc1ccccc1)C(=O)Nc1ccc2ccccc2c1 (stereo not drawn) | 2.03
Cc1cc(NS(=O)(=O)c2ccc(C(C)(C)C)cc2)no1 | -1.47
CC(C)Oc1ccc(C(=O)Nc2sc3c(c2C(=O)NCc2cccnc2)CCCC3)cc1 | -10.8
Cc1ccccc1C(=O)NCc1ccco1 | 0.273
Cc1ccc(CSCc2ccc(C(=O)NCCC(C)C)o2)cc1 | 6.86
COc1ccc(CCNC(=O)Cn2cc(C(=O)c3ccc(C)cc3)c(=O)c3ccc(C)nc32)cc1OC | 2.01
COc1ccc2c(c1)c(=O)c(C(=O)O)c(-c1ccc3c(c1)OCO3)n2C | -6.43
CCOc1ccccc1C1C(C#N)=C(N)Oc2[nH]nc(C)c21 (stereo not drawn) | -8.28
Cc1cccc(C)c1NC(=O)Cn1c(-c2nonc2N)nc2ccccc21 | 0.777
CC1(C)CC(O)=C/C(=N/CCN2CCN(C(=O)Nc3ccc(Cl)cc3)CC2)C1 | -0.366
COc1ccc(/C=C/c2sc3ccc(O)cc3[n+]2C)cc1 | 2.1
CCn1c2ccccc2c2cc(CNCCc3ccccc3)ccc21 | 0.162
C=Cc1ccc(Cn2c(C(=O)O)c(CNCc3ccc(Cl)cc3)c3ccc(OC)cc32)cc1 | 7.39
CC1CCCC(N(C)C2CCN(C)CC2)C1 (stereo not drawn) | 1.88
Cn1nc(-c2ccccc2F)c2cc(C(=O)NCCN3CCN(Cc4ccccc4)CC3)sc21 | 2
Cc1ccc(S(=O)(=O)N2CCN(Cc3cc(-c4ccccc4)ccc3O)CC2)cc1 | -3.48
COc1cccc2c1OC1(C)CC2C(S(=O)(=O)c2ccc(C(C)C)cc2)C(=O)N1 (stereo not drawn) | -8.02

Compound | % Inhibition @ 10 uM [%]
COc1cc(OC)c(OC)cc1/C=C1\N=C(c2ccc(C)c(C)c2)OC1=O | 5.94
Oc1nc(SC(c2ccccc2)c2ccccc2)nc(O)c1Cc1ccccc1 | 4.6
CCCCOc1ccc(C(=O)NCC2COc3ccccc3O2)cc1 (stereo not drawn) | -6.3
O=C(NCc1cccs1)C1CCN(c2cnccn2)CC1 | 4
CC(=O)c1ccc(NC(=O)C2CC(=O)N(c3ccccc3)C2)cc1 (stereo not drawn) | 3.53
NC(=O)c1c(NC(=O)C23CC4CC(CC(C4)C2)C3)sc2c1CCCCC2 | 52.3
O=C(c1cccnc1)N1CCNCC1 | -6.7
CCCCN(CCCC)C(=O)c1ccc(CNS(=O)(=O)c2ccc(OC)cc2)cc1 | -3.35
O=[N+]([O-])c1ccccc1CN1CCCCCCC1 | -3.65
CCOC(=O)c1ccc2nc(NC3(C(F)(F)F)C(=O)NC(C)=C3C#N)sc2c1 (stereo not drawn) | -5.96
CC(=O)c1cc(-c2ccc(F)cc2)n(CCC(=O)NC2CCCCC2C)c1C (stereo not drawn) | 1.47
CCOC(=O)C1CCCCN1Cc1ccc(Cl)cc1 (stereo not drawn) | -0.127
Fc1ccccc1N1CCN(Cc2cc(Br)cs2)CC1 | -0.127
N#Cc1c(NC(=O)/C=C/C(=O)O)sc2c1CCCC2 | -2.72
O=C(CN(C1CCCCC1)S(=O)(=O)c1ccc(Cl)cc1)N1CCN(Cc2ccccc2)CC1 | -8.67
O=C(Nc1cc(Cl)cc(Cl)c1)Nc1ccc(Cl)c(Cl)c1 | -2.02
Cc1nc(-c2ccc(S(=O)(=O)N3CCOCC3)cc2)cs1 | 2.76
COc1ccc(NC(=O)c2ccc(C)cc2)c(OC)c1 | -3.44
CCOc1ccccc1CNC(=O)c1cc2cccc3c2n1CCS3 | -0.0668
O=C(c1ccc(CS(=O)(=O)c2c(Cl)cccc2Cl)o1)N1CCN(Cc2ccccc2)CC1 | -6.89
CCCc1[nH]nc2c1C(c1ccc(OC(C)C)c(OC)c1)C(C#N)=C(N)O2 (stereo not drawn) | 6.42
Cc1ccc(OCc2nc(-c3ccc(C(F)(F)F)cc3)no2)cc1C | -0.671
Nc1ccccc1-c1nc2ccccc2c2nc3ccccc3n12 | -4.58
N#Cc1ccc(Oc2ccc(NC(=O)C3CC=CCC3C(=O)O)cc2)cc1 (stereo not drawn) | -3.83
Cc1ccc(S(=O)(=O)Oc2ccccc2C=C2C(=O)N(C)C(=O)N(C)C2=O)cc1 | -1.93
CCOC(=O)c1c(C)[nH]c2ccc(OC)cc12 | -9.45

Compound | % Inhibition @ 10 uM [%]
O=C(NC1CCCCC1)c1cccnc1C(=O)O | -1.08
CC1CC(Nc2ccccc2)c2ccccc2N1C(=O)/C=C/c1ccccc1 (stereo not drawn) | -0.569
Cc1ccc(N2C(=O)CC(N3CCCCC3C)C2=O)cc1 (stereo not drawn) | -6.36
Cc1ccc(CNC(=O)C(Cc2ccccc2)NS(=O)(=O)c2cccc3nsnc23)cc1 (stereo not drawn) | -1.43
Cc1ccc(S(=O)(=O)NCCC(=O)NC(C)c2ccccc2)cc1 (stereo not drawn) | -5.8
Cc1ccc(S(=O)(=O)N(C)c2ccc(C(=O)NCc3ccccn3)cc2)cc1 | -3.33
COc1ccc(Oc2ccc3[nH]c4c(c3c2)CCCC4=O)cc1 | 3.05
CC1(C)Cc2ccccc2-c2nc(S)nc(O)c21 | -4.35
CCC(=C1C(=O)CCCC1=O)N1CCCC1 | -2.24
C=CCNC(=O)c1ccccc1NS(=O)(=O)c1ccc(NC(C)=O)cc1 | 3.35
CCC(C)c1ccccc1OCC(=O)Nc1sc2c(c1C(N)=O)CCCC2 (stereo not drawn) | -3.72
CCn1cc2nc(SC)n(Cc3ccc(C)cc3)c(=O)c2n1 | -6.08
O=c1c2c(-c3ccc(Cl)cc3)csc2nc2c3ccccc3c(N3CCN(CCO)CC3)nn12 | -7.14
O=C(Nc1cccnc1)c1cc(-c2ccco2)on1 | 0.0221
CC(CCc1ccccc1)NC(=O)c1cc(-c2ccccc2)[nH]n1 (stereo not drawn) | -3.88
Cc1ccc(C2=NN=C(NC(=O)CSc3nnc4c(n3)[nH]c3ccccc34)SC2)cc1 | 5.81
O=C1C2C(c3ccccc3)OC3(C(=O)c4ccccc4C3=O)C2C(=O)N1Cc1ccccc1 (stereo not drawn) | 0.35
CCO/C(O)=C1\C(C)=NC2=C(C(=O)CC(c3ccc(OC)cc3)C2)C1c1ccccc1OC(C)C (stereo not drawn) | 14.5
O=C(O)CCCc1ccc2ccc3cccc4ccc1c2c34 | 8.97
COc1ccc(OC)c(/C=C/c2sc3ccccc3[n+]2C)c1 | -1.63
O=C1CC(c2cccs2)Cc2nc(NCc3ccccc3)ncc21 (stereo not drawn) | 1.63
C=C(C)c1cccc(C(C)(C)NC(=O)N2CCCCCC2)c1 | 4.35
Cc1cc(C(C)(C)C)n2ncc(-c3ccccc3)c2n1 | 1.86
COc1cc(C)ccc1S(=O)(=O)N1CCCCCC1 | 0.503
COc1ccc(CNCc2c(C(=O)O)n(Cc3ccccc3F)c3cc(C)ccc23)c(OC)c1 | -0.537
Oc1nnc(Cc2ccncc2)c2ccccc12 | -4

Compound | % Inhibition @ 10 uM [%]
O=C(CNC(=O)c1ccccc1F)c1ccccc1 | 2.26
Cc1cc(O)c(C=O)c(C)c1Cl | 3.39
COc1ccccc1CNC(=O)c1cc2oc3ccccc3c2n1C | 6.06
CCOc1cc(/C=C2\C(=N)N3N=C(N4CCC(C)CC4)SC3=NC2=O)ccc1O | 1.72
CCCOc1ccc(C(C)=O)cc1Cc1c(O)nc(SC)nc1O | 23.7
CN(Cc1ccco1)C(=O)C1CCN(c2nnc(-n3cccc3)s2)CC1 | -1.98
COC(=O)c1c[nH]n2c(NC3CCCCCC3)c(-c3ccc(OC)cc3)nc12 | 2.79
Cc1c(C(=O)O)c(-c2ccccc2)nn1-c1ccccc1 | -3.65
CCS(=O)(=O)N1CCCC(C(=O)NCc2cccnc2)C1 (stereo not drawn) | -1.79
C=CCOc1ccc(CNc2cccc(C(=O)O)c2)cc1OC | -0.763
CCc1ccc(C2=NN(CCC(=O)NCc3ccccc3)C(=O)CC2)cc1 | 3.93
O=C(O)C1CN=C(c2ccccc2)N1 (stereo not drawn) | -0.256
CCCNC1=N/C(=C\c2ccco2)C(=O)N1c1ccccc1 | 3.49
COc1ccc(-c2nnc(C3CCN(S(=O)(=O)c4ccc5c(c4)CCCC5)CC3)o2)cc1 | 0.66
O=C(Cn1nc(Cc2ccncc2)c2ccccc2c1=O)NCc1ccc2c(c1)OCO2 | 5.09
COc1cccc(C(=O)Nc2cccc(NC(C)=O)c2)c1 | -5.82
Nc1c2c(nc3ccc(Br)cc13)N(c1ccccc1)CC2 | -0.582
COc1ccc(-c2ccc(S(=O)(=O)NCC3CCCO3)cc2)cc1 (stereo not drawn) | -3.29
COc1ccc(Cl)cc1S(=O)(=O)N1CCCC(C)C1 (stereo not drawn) | 0.611
CC(C)Oc1ccc(C2CC(=O)NNC2=O)cc1 (stereo not drawn) | 2.86
CCCNCc1c(C(=O)O)n(Cc2ccc(F)cc2)c2ccccc12 | 1.93
NC(=O)C1CCN(C(=O)c2ccc3c(c2)OCO3)CC1 | -2.07
COc1cc2c(cc1OC)C(c1ccccc1O)NCC2 (stereo not drawn) | 1.66
COc1cc(C2=NOC(C(=O)Nc3cccnc3)C2)cc(OC)c1OC (stereo not drawn) | -0.431
